The source of these data is the supplement of paper PMC6660600, “Odorant Inhibition in Mosquito Olfaction” (iScience, 2019).

Structures are written as SMILES. The list shows a part of the results. Single values are uncertain, as repeats are few or missing.

The test system of the assay is CquiOR32-CquiOrco. The assay can be described thus: current response class (signed ordinal: positive = inward/excitatory, negative = outward/inhibitory) (ordinal score (-3..3)); higher = stronger inward (excitatory) current. The note with it: 1 mM; holding potential (mV): -80. The protocol: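 Xenopus oocytes co-expressing Culex quinquefasciatus CquiOR32 with CquiOrco were challenged by two-electrode voltage clamp (holding -80 mV) with a panel of about 200 odorants at 1 mM source dose (2 s stimulus). The response was scored qualitatively: + to +++ for weak to strong inward currents, x to xxx for weak to strong outward (inhibitory, reverse) currents, +/- and x/- for very weak currents (S/N 2-5), and - for no response. Scale: negative = stronger reverse/inhibitory current.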
Turning to `CCOC(=O)Cc1ccccc1` [ethyl phenylacetate], the current response class was inactive: 0.

Turning to `COC(=O)c1ccccc1C(=O)OC` [dimethyl phthalate], the current response class is active: -1.

Regarding `OCCOc1ccccc1` [2-phenoxyethanol], the current response class was active: 1.

As to `CCCCOC(=O)c1ccccc1C(=O)OCCCC` [dibutyl phthalate], the current response class is inactive: 0.

As to `COC(=O)c1ccccc1N` [methyl anthranilate], the current response class is active: 1.

In the case of `Cc1ccc(O)cc1C` [3,4-dimethylphenol], the current response class is inactive: 0.

In the case of `c1ccncc1` [pyridine], the current response class was active: 2.

`CC(C)[C@]12CC(=O)[C@H](C)[C@H]1C2` [thujone]: the current response class was active: -3.

On to `O=C1CCCN1` [2-pyrrolidinone], for which the current response class was inactive: 0.

Consider `C=CC(=C)C` [isoprene], for which the current response class was inactive: 0.

In the case of `Cc1ccccc1O` [2-methylphenol], the current response class was active: 1.

Take `O=Cc1ccco1` [furfural]: the current response class is inactive: 0.

As to `Cc1ccc(O)c(C)c1` [2,4-dimethylphenol], the current response class is inactive: 0.

As for `CCC1CCC(=O)O1` (stereo not drawn) [γ-hexalactone], the current response class was active: 2.

As for `CSSC` [methyl disulfide], the current response class is inactive: 0.

In the case of `O=C/C=C/c1ccccc1` [(E)-cinnamaldehyde], the current response class was inactive: 0.

In the case of `C=C(C)[C@@H]1CC=C(C=O)CC1` [(S)-(-)-perillaldehyde], the current response class was inactive: 0.

`CCCCOC(C)=O` [butyl acetate]: the current response class was active: 0.5.

Regarding `O=Cc1ccccc1` [benzaldehyde], the current response class was inactive: 0.

As for `CC1=CC(=O)C=CC1=O` [methyl-p-benzoquinone], the current response class was inactive: 0.

In the case of `CCC(C)=O` [2-butanone], the current response class is active: 1.

Regarding `CC1CCC(=O)O1` (stereo not drawn) [γ-valerolactone], the current response class was inactive: 0.

As to `COc1ccccc1OC` [1,2-dimethoxybenzene], the current response class was active: 2.
